In patent US9023758B2, “Methods for promoting plant health” (University of Delaware, priority 2009, dated 2015):

Test system: DC3000
Test: broth micro-dilution assay, direct antimicrobial effect
Format: cell-based, Pseudomonas syringae pv tomato
Settings: 1 ml of 10 mM stock˜88 μg

Structure (SMILES): CC(=O)C(C)O (stereo not shown) [acetoin, 3-hydroxy-2-butanone]
- susceptibility of DC3000 to direct antimicrobial treatment: not susceptible
